Results as given in the supplement of paper PMC10681739.
Over roughly 2,700 sequences, “arbitrary fluorescence units” has its median near 4,100; the highest 2% begin near 54,000. The list shows a part of the results.

target: T1, ETS1 (UniProt P14921); assay: ETS1 binding intensity (PBM fluorescence) (arbitrary fluorescence units); higher = stronger binding; settings: ETS1 concentration 10 nM
T1 sequence: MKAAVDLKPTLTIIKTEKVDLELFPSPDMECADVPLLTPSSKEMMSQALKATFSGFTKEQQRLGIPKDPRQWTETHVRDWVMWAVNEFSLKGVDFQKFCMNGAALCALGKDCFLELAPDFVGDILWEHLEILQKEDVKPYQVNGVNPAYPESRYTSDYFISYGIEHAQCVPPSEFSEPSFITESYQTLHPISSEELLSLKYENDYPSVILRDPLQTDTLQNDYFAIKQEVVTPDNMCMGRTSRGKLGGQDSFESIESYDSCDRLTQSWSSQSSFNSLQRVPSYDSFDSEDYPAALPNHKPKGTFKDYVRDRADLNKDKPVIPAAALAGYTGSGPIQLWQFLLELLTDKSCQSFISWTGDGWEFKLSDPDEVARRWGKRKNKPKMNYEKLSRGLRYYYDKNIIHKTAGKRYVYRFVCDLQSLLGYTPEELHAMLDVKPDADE
Protocol: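 gcPBM on wild-type 36-bp genomic probes with two neighbouring ETS1 sites (4-24 bp apart). Recombinant human ETS1 (10 nM) was detected with anti-ETS1 antibody fluorescence. Values are medians over 3 replicate spots. The probes sit in constant array flanks that are not printed.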

Row | Sequence | ETS1 binding intensity
1 | ATGCTGCTTCCTGCCTTTCTCCTTCTTCCTGTCTCA | 19600
2 | GACCTGGCCAGGAAGGCCTGAGCTTCCGGGTCATCT | 1600
3 | GCTCCGGAAGCGGCTGCGGCCCCGACCGGAAAGCCC | 7420
4 | AGGCCCTTCCGGCTCACGCGCCGTACGGAAGCGTGC | 17100
5 | CGTGTGGCGTCACTTCCGGCTTCCTTCAGTCCGCTG | 39400
6 | TAAAAACTACATTTCCCAGACTTCCTTGCAACTAGG | 188
7 | GAAGCTTTGGTCTTCCGCTTTTTCCTGCCTGTATCA | 4070
8 | ACCCCAGCCGGAAGTAGACTCCCAGGATGCAGCGGA | 24500
9 | TCGGGACCCACATCCTGCCCCCATCCTGTGTACCCA | 11800
10 | TGCTAGGTCATTTCCTCTCCTTTCCGCGAGACCTTC | 8910
11 | ATAGGGCCGGGGCTTCCTCTTCCGGCAAGGAGGGGT | 3470
12 | ATATGGGTAGGACAGGAAGGAAGTGGTGTGTGGTCC | 851
13 | GCCAGACTTCCTTTGTTTAGAATGTGGGAAATGTCT | 12800
14 | TCAGTTTAATCCGGTCTGAGTTAACTTCCTGACCCA | 1290
15 | CCAGGGAGGAAGTGTCGGTGTTTACAGGAAATGCAG | 3530
16 | GCCCAGGAAATGGAAGCCAGAGGAAGCAGAGGGGTG | 2820
17 | ACGGGTGCCAGGAAGAATGCACAGGATACGGGCTTC | 379
18 | CTAAAGGAAATCGAGTGTAATTTACAGTTTCCGCTC | 2310
19 | TTTGCAGGAAGCAGGGCTACCAGCAGCTTCCTGCGT | 1480
20 | ACACAGACAGGAAGCAGGGCTCACTTCCTGCACCAG | 10500
21 | TGACTCACTTCCTTTGCATAGAAGCGGAAACCTCCC | 13100
22 | CCGCGAATCCGGTGCTTTCTTGCCCCAGGAAGAAGC | 5030
23 | CCCAGCGAGAGGTTTCCTCTTCCGGCACCTGACCCC | 4930
24 | GCACCCAGCCAACTTCCTGTTTCCGCGGTAGCGCGC | 37500
25 | AAAGGTGACCGGGCTTCCTTCCGGCTTGCTAAGCAG | 5790
26 | CTAGTGAGGAAATAGGCCAGAGAAAGGAAGTGACTT | 774
27 | CAGCTCCTCCAGGAAGCCCGACATCCTGGCCCACCG | 1350

Row | Sequence | ETS1 binding intensity
28 | TTCTGTTTCCTGGGCTGCAGGGGAGCAGGAAATCTG | 5560
29 | CCTGAGTTTCCTTGTCTGGAGCTGCAGGATATTTGT | 800
30 | ACTATGACACAGGAAATTAACAGGAAGACTTAGAGG | 4870
31 | GCATTCATCCTGACCTTACTGAGGGCTTCCTGTGTT | 2280
32 | CAATGAAGGAAATTGTGCCCTGCGACTTCCCGTAAC | 594
33 | GTGGCGTGGCCAGTTTCCTTTCCGGCGCTGACAGGC | 3040
34 | CTGGTTTCCTGTCAAACGATCAAAGCAGGAAATATG | 25800
35 | CAGTCATGGCAGGAAGAGAAGAGGAAACACCTGGGG | 604
36 | TTCCACTTCCGGTCTTACCCGGCTACTTCCGCTGCT | 147000
37 | CATGGGGATGTGGTATCAGGCGGGGCAGGAAGTCAC | 530
38 | GAGAGGCAGGAAGAGAGCAGAGCCGGAAGCACAAGG | 2630
39 | ATTGCTTCCTTTGCATATTCACCATACATCCTGCTT | 7340
40 | AAGACAGGAAACAACAGATGCTGAAGAGGATGTGGA | 3180
41 | ATTGGACACCACCGGAAACGGAAATTCACCGTCGCG | 19100
42 | TGGTCGGTTCTTCCTGCCTGCCTTCCTGTCCGTCGG | 8340
43 | GGGCCACTTTTCCGCAGGGGGCATTTCCGTCTGGCG | 1860
44 | GCGCTTCCGGGACGCAGGAGGCATCTGCATCCGGGG | 29000
45 | AAAACAGGAAGCGCCCAGTCACCACAGGAAGCATGT | 10000
46 | GCCTAGGGAGTGAGGAAGCAGGAAGTGAAGCCCTGA | 3590
47 | CTAGAAGAGACTTCCCCAACAGGATGTTGCCCAACC | 2380
48 | GGTTATCCGGACACAGGGAGTCTCCAGCTTCCGGCT | 6080
49 | GGACCTCCCCAGCGGAAGCGGAAGTGGCCGCCGGCA | 12100
50 | GGCCAGAGCGGCAGGATGGCTTCCGGCTTCAAGAAG | 9710
51 | CACCCACTTCCTGCCAGCCAGCTGCTTCCTCCTGTT | 47800
52 | ACCTTAGGCATGGGAAATGACATCCTTAGATGCCCT | 184
53 | GACACACAGGAAGCTAACCTTGCATTTCCTCCAGGA | 3990
54 | AGAAATCCTGTCTTGGGAATAGCCACGCATCCTGCC | 3070

Row | Sequence | ETS1 binding intensity
55 | GGTAGATCTCCAGGAAGCACAGGAAGTCGGTGAGCA | 3430
56 | AACGGCTGTATCCGGAGCCAGTGCTTCCTCAGTGCG | 6160
57 | AAAAATTATTTCCGGCTCCTCCCGGAAGTGCCGAAG | 35000
58 | TACGGCCCGGTTTCCCGTTTCTTTCCGCTGTCGCGT | 2560
59 | CGGGGAGCCAGGAAGGCAGACAGGATGTGGAGGTCA | 2010
60 | TTCCCTCACTTCCTTTTCACACTTTCCTGCCAAGTG | 14700
61 | GTCTGTTAGCACAGGAAACAGGATGGGTGTCAGTGA | 1320
62 | GTCACCTTTCCTGTCAGCACTTTGGCTTCCTCACCC | 7800
63 | ATAAGGGAAATGGGTACCTCCCGAGGAGGAAGTTTA | 377
64 | AGATCGCTGGCTTCCTGTGTTTTTCCTGGACTCAGG | 14800
65 | GAGGGAGGTGCAGGAAAGTCGGAAGGCATTAGGGTA | 179
66 | ATTACTGCTTCCTGTTTTTAAACAGGATTGAAAGGA | 23900
67 | GGGGCGGGGCCCGGAAGAGCAGGATGGCGGCGCGGG | 784
68 | TTCTTGCATTTCCGAGTACTCTAAGGAAATCATTGA | 1180
69 | TGCAGTGTTCCGCTGAGCTCAAGTTCTTCCTGTGCT | 589
70 | CCAGCCCCATTTCCCATGAGGCTTCCTGTGCTTGGA | 3130
71 | AGCCCTTCCTGCTTCTTGAAATACTCATATCCTCTG | 14200
72 | ACCAGTGGGGGATGTGCATGACCAGGAAACCCCCAG | 176
73 | TCACCATAGGAAACATGAAGTCACATCCTGGTCAAA | 597
74 | TAGTGCTTCCGGGTCACCCCGGCCCAGGAAGGCGCA | 24900
75 | TAAGTGCTTTACTTCCTACTGGGAAATGGCTTGACT | 1530
76 | GCCCGCGCCCAGGAAGGAGGGCTTCCGCCCGGGTGA | 2470
77 | CAGCTACACCACTTCCTCAGCTTCCTCCATAGTGAG | 3940
78 | GAAGGTCGTAGCAGGAAGAAGGAAGTATTCTCTGGA | 844
79 | CGACCACTTCCGTGTCCACGTCACCTTCCGCGACCA | 16700
80 | TTGTGCCGCTTCCGCAAGAAGGTTTCCTGGCCTGTT | 9140
